The other results are listed elsewhere or left out.

In the antibiotic and cytotoxicity screens of Wong et al. (2023) one finds cytotoxicity call data, which are given here for 31 molecules.

The assay relates to HepG2. Put plainly: cytotoxicity call (relative viability < 0.9). The note with it: 10 µM.
Regarding `Cc1noc(C)c1NC(=O)N(C)C[C@H]1Oc2c(NC(=O)c3ccncc3)cccc2C(=O)N([C@@H](C)CO)C[C@H]1C`, the cytotoxicity call was “inactive”.
For `CCO[C@H]1OC(C(=O)N2CCN(C)CC2)=C[C@@H](c2coc3ccccc3c2=O)[C@@H]1CCCOC(=O)NCCCCCC(=O)NO` the value was “inactive”; for `CC(C)NC(=O)NCC[C@@H]1CC[C@@H](NC(=O)CN(C)C)[C@@H](CO)O1`, “inactive”; for `C[C@@H]1CN([C@H](C)CO)S(=O)(=O)c2ccc(-c3cccc(F)c3)cc2O[C@H]1CN(C)S(C)(=O)=O`, “inactive”.
Then `C[C@H]1CCCCO[C@H](CN(C)C(=O)Nc2ccc(F)cc2)[C@@H](C)CN([C@@H](C)CO)C(=O)c2cc(NC(=O)CCCN(C)C)ccc2O1`, with “inactive”.
Then `S=c1[nH]nc(C2CCCCC2)[nH]1`, with “inactive”; and `C[C@H](CO)N1C[C@H](C)[C@H](CN(C)S(=O)(=O)c2ccc(C#N)cc2)OCc2cnnn2CCCC1=O`, with “inactive”; and `Cc1noc(C)c1NC(=O)N(C)C[C@H]1Oc2c(NC(=O)c3cnccn3)cccc2C(=O)N([C@@H](C)CO)C[C@H]1C`, with “inactive”.
As to `C[C@@H]1CCCCO[C@@H](CN(C)Cc2ccc(C(F)(F)F)cc2)[C@H](C)CN([C@@H](C)CO)C(=O)c2cc(NC(=O)c3ccncc3)ccc2O1`, the cytotoxicity call is “inactive”.
Turning to `C[C@@H](O)C#Cc1cnc2c(c1)C(=O)N([C@@H](C)CO)C[C@H](C)[C@H](CN(C)Cc1cncnc1)O2`, the cytotoxicity call was “inactive”.
Then `O=S(=O)(NCC[C@@H]1CC[C@H](NS(=O)(=O)c2ccccc2Cl)[C@H](CO)O1)c1ccc(Cl)cc1`, with “inactive”; and `O=C(C1=C[C@@H](c2ccc(Br)cc2)C[C@@H](OCc2ccc(CO)cc2)O1)N1CCCCCCC1`, with “inactive”; and `C[C@@H]1CCCCO[C@H](CN(C)Cc2ccc(C(=O)O)cc2)[C@@H](C)CN([C@H](C)CO)C(=O)c2cc(NC(=O)c3ccccc3)ccc2O1`, with “inactive”.
Consider `Nc1nonc1N1CCCCC1`, for which the cytotoxicity call is “inactive”.
For `CC(=O)N1CCN(c2ncnc3nc[nH]c23)CC1` the value was “inactive”; for `C[C@H](CO)N1C[C@H](C)[C@H](CN(C)S(=O)(=O)c2cccs2)OCCCC[C@H](C)Oc2ccc(NC(=O)Cc3ccccc3)cc2C1=O`, “inactive”.
Then `C[C@@H]1CCCCO[C@@H](CN(C)C(=O)C2CCCCC2)[C@@H](C)CN([C@H](C)CO)C(=O)c2cc(NC(=O)Nc3ccc(C(F)(F)F)cc3)ccc2O1`, with “inactive”; and `CCOC(=O)CN1CCN(C=O)CC1`, with “active”; and `CNC(=O)CN1CCOC[C@@]2(C1)CN(C(=O)c1ccn[nH]1)CCO2`, with “inactive”.
Consider `C[C@@H]1C[C@H](C)CN(Cc2nc3c(c(=O)n(C)c(=O)n3C)n2CC(N)=O)C1`, for which the cytotoxicity call was “inactive”.
Take `COc1ccc(C#Cc2ccc3c(c2)[C@]2(C(=O)N3)[C@H](c3ccc(OCCO)cc3)N3[C@H](c4ccccc4)[C@H](c4ccccc4)OC(=O)[C@H]3[C@@H]2C(=O)N2CCc3cc(OC)c(OC)cc3C2)cc1`: the cytotoxicity call is “inactive”.
Then `C[C@@H]1CCCCO[C@@H](CN(C)Cc2ccc(C(=O)O)cc2)[C@H](C)CN([C@H](C)CO)C(=O)c2cc(NC(=O)CCC(F)(F)F)ccc2O1`, with “active”; and `C[C@@H]1CCCCO[C@@H](CN(C)C(=O)CCC(F)(F)F)[C@H](C)CN([C@@H](C)CO)C(=O)c2cc(NC(=O)Cc3ccccc3)ccc2O1`, with “inactive”.
For the molecule `COC(=O)c1c(OC)cc2c(c1C)Oc1c(Cl)c(O)c(Cl)c(C)c1C(=O)O2`, the cytotoxicity call was “inactive”.
Consider `Cc1[nH]c(=O)[nH]c(=O)c1S(=O)(=O)N1CCC[C@H](C(=O)NCCc2c[nH]c3ccc(F)cc23)C1`, for which the cytotoxicity call is “inactive”.
For `C[C@H](CO)N1C[C@H](C)[C@H](CN(C)Cc2ccc3c(c2)OCO3)Oc2ccc(NC(=O)CCN3CCOCC3)cc2C1=O` the value was “inactive”; for `Cc1noc(N)c1C(=O)O`, “inactive”.
Then `Cc1noc(C)c1NC(=O)N(C)C[C@H]1OCCCC[C@H](C)Oc2ccc(NC(=O)Cc3ccccc3)cc2C(=O)N([C@@H](C)CO)C[C@@H]1C`, with “inactive”.
For `C[C@H](CO)N1C[C@H](C)[C@@H](CN(C)Cc2ccc(C(F)(F)F)cc2)Oc2ccc(NC(=O)Cc3cn(C)c4ccccc34)cc2C1=O` the value was “inactive”; for `COCC(=O)Nc1ccc2c(c1)OC[C@H](C)N(C(=O)Cc1cccnc1)C[C@H](C)[C@H](OC)CN(C)C2=O`, “inactive”; for `C[C@H]1CNC(=O)[C@@H](CC(=O)N(CCOC(=O)NCCCCCC(=O)NO)Cc2ccccc2)C/C=C/CC[C@H](NC(=O)OC(C)(C)C)C(=O)O1`, “inactive”.
